Among all 150,000 compounds or so, about 540 (0.36%) showed an effect of 50% or more. Some of the results follow.
system: Plasmodium falciparum; assay: Primary screen in NF54 nanoGlo assay, in single point, at 2uM, 72h; a lower Z score goes with more inhibition; assay type: functional, Erythrocyte; settings: timepoint 72 hour

Structure (SMILES)	% Inhibition	Z score
CC(C)(O)[C@H]1CCN(Cc2[nH]c3ccccc3c2Cl)C1	-4%	0.35
CCCCc1nc(CN2CCC(CCC(=O)NC[C@H]3CCCO3)CC2)c[nH]1	-24%	2.18
Cc1cc(C(=O)Nc2ccc([C@H]3OCC(=O)N[C@@H]3CO)cc2)no1	-1%	0.15
Cc1ccc(S(=O)(=O)N2CCc3c(c(-c4nc(-c5ccccc5)no4)nn3C)C2)cc1Cl	-7%	1.16
CCn1nc(C(=O)O)c2c1CC[C@H](N1CCN(c3nc(C)cc(C)n3)CC1)C2	-9%	1.33
O=C(NCCOCc1ccccc1)c1ccc(CN2CCCC2)o1	-8%	0.85
CCCCN(Cc1ccco1)c1ncnc2oc(C)nc12	13%	-1.7
CCc1nnc(CN[C@H]2CCCC[C@H]2CC(F)(F)F)n1C	7%	-0.95
COc1cccc(C2CC(O)CN2C(=O)c2cnn3ccc(C)nc23)c1 (stereo unspecified)	-5%	0.98
CN(Cc1noc(-c2ccccc2)n1)C(=O)c1nc2ccc(F)cc2[nH]1	-8%	1.07
CCc1cc([C@@H]2CCCN2C(=O)Cc2cccs2)on1	-5%	0.64
CCC1CCN(C(=O)CS(=O)(=O)NC)CC1	13%	-1.51
COc1cn(CC(=O)Nc2n[nH]c(Cc3ccc(F)cc3)n2)c(C)cc1=O	-11%	1.48
Cc1nc(C(=O)N2CCN([C@@H](C)c3ccccc3F)CC2)c[nH]1	1%	-0.22
CC(C)(C)c1cnc(CCC(=O)NCCc2cc(F)ccc2F)o1	4%	-0.49
O=C1N[C@H](Cc2ccc(O)cc2)C(=O)N2C[C@H](O)C[C@@H]12	-2%	0.42
CO[C@@H](C(=O)NCCc1nc(C(C)C)nn1C)c1ccccc1	-11%	1.68
Cc1cc(CNc2nc(NCc3cc(C)no3)nc(C3CCCC3)n2)on1	7%	-1.14
Cc1nnsc1C(=O)N[C@@H](C)Cc1ccco1	-3%	0.44
O=C(Cc1nc(Cc2ccc(F)cc2)n[nH]1)Nc1ccc2c(c1)OCO2	-8%	1.04
CN(C)C(=O)c1cncc(-c2cnc3ccccc3c2)n1	-4%	0.5
CC(=O)Nc1nc(C(=O)N2CCNC(=O)C[C@@H]2C)cs1	1%	-0.15
Cc1cccc(N2CC[C@@]3(CCCN(C4CCCCC4)C3=O)C2)n1	-15%	2.86
